Test results published in publication PMC5386880.
Results are given in words; binding and its absence hold for the method and conditions named. Binding seen in cells or lysates may run through a third protein. Some results given as binding are weak or reduced against the parent protein; the word gives no strength. Tags and fused reporters may be left off the sequences shown.

Amino acid sequences for entries named in this document (tags omitted).
UniProt P51140: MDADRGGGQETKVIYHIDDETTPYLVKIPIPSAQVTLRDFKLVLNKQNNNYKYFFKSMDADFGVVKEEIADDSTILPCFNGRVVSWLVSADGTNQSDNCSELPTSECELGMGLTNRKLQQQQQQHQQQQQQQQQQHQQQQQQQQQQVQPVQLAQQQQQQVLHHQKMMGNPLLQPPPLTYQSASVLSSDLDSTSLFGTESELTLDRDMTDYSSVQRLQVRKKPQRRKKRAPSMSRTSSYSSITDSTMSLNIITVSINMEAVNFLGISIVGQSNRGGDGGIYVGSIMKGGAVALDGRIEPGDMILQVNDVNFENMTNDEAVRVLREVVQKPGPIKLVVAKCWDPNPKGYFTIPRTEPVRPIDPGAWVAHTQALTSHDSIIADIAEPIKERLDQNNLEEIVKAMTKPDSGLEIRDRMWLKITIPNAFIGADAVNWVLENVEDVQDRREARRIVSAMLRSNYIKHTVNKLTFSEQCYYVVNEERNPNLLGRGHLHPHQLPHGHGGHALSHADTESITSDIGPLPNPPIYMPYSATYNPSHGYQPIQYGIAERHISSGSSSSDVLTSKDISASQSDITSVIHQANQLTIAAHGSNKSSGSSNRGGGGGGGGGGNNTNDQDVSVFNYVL

Molecular target: Dsh-myc (dsh-myc transgene) (Drosophila) (UniProt P51140)
Assay: co-IP; 150-200 third instar wing discs of transgenic flies; lysis buffer 50 mM Tris HCl pH 7.5, 150 mM NaCl, 1% Nonidet P40, 0.5% deoxycholate; antibody (rabbit GFP or rabbit Myc) and protein A agarose; western blot

binding: binds
B1: Frtz expressed from a UAS transgene driven by ptc-Gal4 (UAS-frtz in the legend, UAS-(myc)6-frtz in the methods) (protein, UniProt Q9VQ36 1-951)
chain: MLLSETHFWTTLREDVVRIKSQDLGAFRYLRQRDKEQEQQDLACLAKRDYTERRNGLAVLKNSGRKSTGRLKDNLKKLEDLLRQHRIIHSEWQDAAQVLLLFSHGLIAHICVDIYTGDILRMVFEKYLVGKLASEVITDAFFTRSHIVLAYNTNQLTVVHLQRPNARSQGPEKIANMDPRIFHVIIPGATERKLSRHLTVNASFDLFVVWTQSSQNEVYPWRPTIRDQDRANIHVFKIKGLQLESIAYCWSENDPLCVDFLRSSESQIITLEQKVSRKGDISAEICSYELAAGKMQRTAITSIPMGAQICSFAFSPDQEKLFLGSVDRNICLHDLVQQSTKYANQIEIVPNQCAWHCDSAMLCVANERSVLQCFDLALATIGHQLVSENVTPSSLLDLSHYFVAQPTLLSVAFSRKPDLSTFKHTYAQTDCLLLLVYEQGPLACMRIFGGTGMRGDIHNSGLTADVIADKYLRLQQPDRAVNVLAALNWETYGAMCLITLHKIANYVFFGGDQRRPRIELMARALKTFAHTLSEETKDEFSDQVYDLKRRFCFYLLRKNLFAEAFEIAQDVADYDIFMDLYNLTKCISSLSEFAQVAFSQAAAIIHEEDRANGNLSLTCDLRSESACSLSTCSDMLRGQGAGTAPETGLGASQPQSQQVLKNYVPPLPSFKSKVFNAEMIKINIPKPELRPPLPKVSIAPPTSSLASLTLKSNSSLQQAPAKSLHPNGNLWSQDVPDQTVGLPMASSPLPRLPPSNIPDQSAQLGQFSTMPASPPPTGSYQPKFYQHPLVSGNIPAMLPSLTSEDYQKRLLQKKPTASILSNPANPAPTNGEAPATPAKSQTAEKNKVKFSDTIQVAVVPEIPRKEKPMPPKRNGYSRPAARHLTNPKKELADSLPLCHPNDEYLKDFNPITTNVTKPPIRRREEEPKSSSKGGNSSSSSSSIKVVHFGVV
